This is an account of results in PubChem BioAssay AID463173 (ICCB-Longwood Screening Facility, Harvard Medical School, 2010).

Out of some 52,000 compounds screened, about 4,300 (8.3%) were called active. No stated cut-off is given here; in the data, active means survival mostly below about 52% (no sharp cut-off); inactive means mostly above about 56%. This is one part of the list.

In the assay the test system is DeltatarO mutant. Description: growth inhibition of S. aureus wild type versus tarO mutant, primary screen, teichoic acid synthesis inhibitors, RN4220, OD600 (AID 463173). The settings on record: OD600, 18 h, active compounds read low, screened at 18.75 µg/mL (by protocol).
On to `CN(C(=O)CCS(=O)(=O)c1cc2c(cc1Cl)NC(=O)CO2)C1CCCCC1`, for which the survival was inactive: 95%. The same measure for `Cc1ccc(CCNC(=O)CCS(=O)(=O)c2cc3c(cc2C)NC(=O)CO3)cc1`: inactive: 85%; for `Cc1nncn1-c1ccc(C(=O)Nc2cc(F)ccc2F)cc1`: inactive: 94%. For the compound `O=C(Nc1c(C(=O)N2CCN(c3ccccc3)CC2)oc2ccccc12)c1ccco1`, the survival was active: 37%. Regarding `Cc1c(C(=O)NCCc2ccc(Cl)cc2)sc2nc3n(c(=O)c12)CCCC3`, the survival is inactive: 50%. As for `CC(C)C(=O)NCC(c1ccc2c(c1)OCO2)N1CCN(c2ccccc2)CC1` (stereo unspecified), the survival was inactive: 99%. `Cc1ccccc1CN1c2ccccc2-c2nc(SCC(=O)NCc3ccccc3)ncc2S1(=O)=O`: the survival was active: 20%.

As for `COc1ccc(-n2ncc(C(=O)Nc3cccc(C(F)(F)F)c3)c2C2CCN(C(=O)OC(C)(C)C)CC2)cc1`, the survival is inactive: 79%.

For the compound `Cc1ccc(C2=Nc3ccccc3N(CC(=O)NCc3ccccc3Cl)C(=O)C2)cc1C`, the survival was inactive: 82%. The same measure for `COc1ccc(N2Cc3cccc(C(=O)Nc4ccc(F)cc4)c3C2=O)cc1`: inactive: 92%; for `CCOc1ccc(NC(=O)c2oc3ccccc3c2NC(=O)c2c(F)cccc2F)cc1`: inactive: 91%. For `C=CCNC(=O)c1ccc(CN2CCOCC2)cc1`, the survival is inactive: 82%. The same measure for `CNc1nc2ccccc2o1`: inactive: 89%. For `Cc1ccc2nc(CNC(=O)c3ccccc3)[nH]c2c1`, the survival is inactive: 104%. For the compound `COc1ccc(CCNC(=O)C(=O)NCC(c2ccc3c(c2)OCO3)N2CCOCC2)cc1OC` (stereo unspecified), the survival is inactive: 69%. The same measure for `Cc1cccc(-c2noc(CSc3nc(-c4ccc(F)cc4)cc(=O)[nH]3)n2)c1`: inactive: 83%; for `CCOc1ccc(N2C(=O)CC(NCCNC(=O)c3ccc(Cl)cc3)C2=O)cc1` (stereo unspecified): inactive: 102%; for `Cc1cccn2c(=O)c(C(=O)NCCc3ccccc3)c(O)nc12`: inactive: 52%. The same measure for `CCN(c1cccc(C)c1)S(=O)(=O)c1nnc(NC(=O)c2ccccc2Cl)s1`: active: 17%; for `Cc1ccc2nc(-c3ccc(NC(=O)COc4ccccc4)cc3)sc2c1`: inactive: 68%. Take `Cc1ccc(S(=O)(=O)Nc2ccc(N=NN3CCCCC3)cc2)cc1`: the survival was inactive: 71%. For `CC(=O)c1ccc(N2C(=O)N(CC(=O)c3ccc(C)cc3)c3ccccc3S2(=O)=O)cc1`, the survival is inactive: 80%. Take `CCOc1ccc(NC(=O)C2CCCN(S(=O)(=O)c3ccc4[nH]c(=O)ccc4c3)C2)cc1` (stereo unspecified): the survival was inactive: 97%. The same measure for `COc1ccccc1N1CCN(C(=O)CSc2nc3ccccc3nc2Cc2ccccc2)CC1`: inactive: 101%. As for `COc1cccc(-n2ccn(CC(=O)c3ccc(F)cc3)c(=O)c2=O)c1`, the survival was inactive: 87%.

On to `Cc1ccc(CSC2=Nc3ccccc3C3=NC(CC(=O)NC4CCCCC4)C(=O)N23)cc1` (stereo unspecified), for which the survival was inactive: 71%.

Regarding `CCCN(CCC)S(=O)(=O)c1ccc2c(c1)N(CC(=O)NC(C)c1ccccc1)C(=O)CS2` (stereo unspecified), the survival was inactive: 67%. The same measure for `COc1ccc(CNC(=O)c2cc(Nc3ccc(C)cc3C)nc3ccccc23)cc1`: inactive: 73%; for `Cn1cnc(S(=O)(=O)N2CCC(C(=O)N3CCN(c4ccccc4F)CC3)CC2)c1`: inactive: 75%; for `CSc1cccc(NS(=O)(=O)c2cn(C)c(C)n2)c1`: inactive: 75%. For the compound `Cc1cc(C)cc(NS(=O)(=O)c2ccc3[nH]cc(C(=O)NCc4ccccc4Cl)c(=O)c3c2)c1`, the survival is inactive: 115%. The same measure for `O=C(CSc1nnc(-c2ccc([N+](=O)[O-])cc2)o1)Nc1ccccc1`: inactive: 81%; for `COc1cc(NC(=O)Cn2c(=O)n(Cc3ccco3)c(=O)c3oc4ccccc4c32)cc(OC)c1`: active: 38%; for `Cc1ccc(OCCn2nnc3sc4c(c3c2=O)CCC(C)C4)cc1` (stereo unspecified): inactive: 54%. Turning to `CCOC(=O)C(C)Nc1n[nH]c(=O)[nH]c1=O` (stereo unspecified), the survival was inactive: 90%.

On to `CCOc1ccc(C(=O)N2CCC(c3noc(-c4ccc(S(=O)(=O)N5CCCC5)cc4)n3)CC2)cc1`, for which the survival is inactive: 87%. On to `CCc1c(-c2ccccc2)nc2ccccc2c1C(=O)NCc1ccc(C)cc1`, for which the survival was inactive: 92%. Regarding `CN(C1CCCCC1)S(=O)(=O)c1ccc2c(c1)c(=O)c(C(=O)N1CCN(c3ccccc3F)CC1)cn2C`, the survival is inactive: 87%. The same measure for `COC(=O)c1cc(NC(=O)Cn2nc(-c3ccc(C)c(C)c3)ccc2=O)cc(C(=O)OC)c1`: inactive: 65%. The same measure for `CCC(C)NC(=O)C1=CC(c2ccc3c(c2)OCO3)=NS(=O)(=O)N1C` (stereo unspecified): inactive: 83%; for `CC(C)(C)c1ccc(C(=O)N2CCCCC2CCN2CCCCC2)cc1` (stereo unspecified): inactive: 83%; for `O=C(CN1C(=O)COc2ccc(S(=O)(=O)Nc3ccccc3)cc21)Nc1cccc(Cl)c1`: inactive: 96%. As to `COc1cccc2c1Oc1ncccc1N(C(=O)CCC(=O)NCc1ccccc1Cl)C2`, the survival is inactive: 58%. The same measure for `COc1ccc2c(c1)cc1c(=O)n(CC(=O)NCCCc3ccccc3)nc(C)n12`: inactive: 74%; for `COC(=O)c1ccc(Cn2nnc3c(=O)[nH]c(C4CCCN(S(=O)(=O)c5cccc(Cl)c5)C4)nc32)cc1` (stereo unspecified): inactive: 94%. The same measure for `COc1ccc(N2CCN(c3nc4ccc(C)cc4n4nnnc34)CC2)cc1`: active: -5%. The same measure for `O=C(Nc1ccc(Br)cc1F)N1CCC2(CC1)Oc1ccccc1C(=O)N2Cc1ccccc1F`: inactive: 69%; for `CCN(c1ccccc1)c1nnc(NC(=O)Nc2ccc(Br)cc2F)s1`: inactive: 97%. With `COc1ccc(C2C(C(=O)Nc3ccc(C)cc3C)=C(C)Nc3nc4ccccc4n32)c(OC)c1` (stereo unspecified), the survival is inactive: 77%. For `COc1ccc2occ(CC(=O)Nc3ccc(S(=O)(=O)Nc4nc(C)cc(C)n4)cc3)c2c1`, the survival was inactive: 104%. The same measure for `Cc1cc(Cl)ccc1OCC(=O)N(Cc1ccco1)Cc1ccco1`: inactive: 55%; for `COc1ccc(-c2cn3cccnc3n2)cc1NC(=O)c1cc(C)cc(C)c1`: inactive: 61%. The same measure for `O=C(c1ccccc1)n1nnc2ccccc21`: inactive: 106%; for `COc1ccc(-c2nnc(C3CCN(S(=O)(=O)c4ccc(C)c(C)c4)CC3)o2)cc1`: inactive: 64%. In the case of `Cc1ccc(-n2ncc(C(=O)N3CCN(c4ccc(Cl)cc4)CC3)c2C2CCN(C(=O)OC(C)(C)C)CC2)c(C)c1`, the survival is inactive: 92%. On to `CCOC(=O)c1ccc(NC(=O)c2ccc(=O)n(Cc3cccc(C)c3)c2)cc1`, for which the survival was inactive: 67%.
